Data reported in the supplement of paper PMC12217912.
Some of the results follow. Sequences were assembled here from the parent chain. Inactive controls read about 0.05.

B1: TEV protease; numbered along this chain (parent)
chain: MGESLFKGPRDYNPISSSICHLTNESDGHTTSLYGIGFGPFIITNKHLFRRNNGTLVVQSLHGVFKVKDTTTLQQHLVDGRDMIIIRMPKDFPPFPQKLKFREPQREERICLVTTNFQTKSMSSMVSDTSCTFPSGDGIFWKHWIQTKDGQCGSPLVSTRDGFIVGIHSASNFTNTNNYFTSVPKNFMELLTNQEAQQWVSGWRLNADSVLWGGHKVFMVKPEEPFQPVKEATQL

Variants of: B1
Assay: raw area under fraction-flipped curve 0-4 h after induction (AUC4h, not background-subtracted), DNA-recorder readout of cleavage of the substrate (dimensionless); higher = more cleavage of the substrate by the protease variant
Conditions: temperature: 34 °C; time window: 0-4 h after rhamnose induction
Experimental: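 In vivo DNA recorder in E. coli TOP10(DE3) ΔrhaA at 34 °C. Each TEVp single-site mutant (parent TEVp 0) is paired with a single-site variant of the 7-mer TEVs (canonical ENLYFQ|S). The substrate sits between flexible linkers in a Bxb1-sfGFP-TEVs-SsrA fusion, so cleavage stabilises Bxb1 and speeds flipping of a recombination array, read by NGS. The value is the raw area under the fraction-flipped curve over 0-4 h after rhamnose induction (AUC4h), with ≥20 reads per time point. It is not background-subtracted; inactive controls average about 0.047.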
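Further: Bxb1 expression induced with 0.2% (w/v) L-rhamnose at OD600 near 0.5, cultures sampled hourly, flipped fraction per protease–substrate barcode pair counted by paired-end Illumina sequencing.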

Variant	area with substrate ENLYFQA	area with substrate ENLYFQC	area with substrate ENLYFQD	area with substrate ENLYFQF	area with substrate ENLYFQK	area with substrate ENLYFQL	area with substrate ENLYFQM	area with substrate ENLYFQN	area with substrate ENLYFQQ	area with substrate ENLYFQR	area with substrate ENLYFQS	area with substrate ENLYFQV	area with substrate ENLYFQW	area with substrate ENLYFQY	area with substrate ENLYFQE	area with substrate ENLYFQG	area with substrate ENLYFQH	area with substrate ENLYFQI	area with substrate ENLYFQP	area with substrate ENLYFQT
I42P	0.025	0.0463	0.0389	0.0304	0.0403	0.0411	0.0412	0.0428	0.0485	0.0476	0.0455	0.0431	0.0515	0.0482						
I42T	0.0629	0.0776								0.0251	0.0604			0.0586	0.0491	0.0463	0.0479	0.0555	0.0565	
I43M	0.0772	0.0758		0.065	0.0571	0.0648	0.0987	0.0638			0.0857		0.0669	0.0839		0.0636	0.0427	0.0478	0.0543	0.0557
T44V	0.079	0.0855	0.0439	0.062	0.0649	0.0657	0.0627	0.0798	0.0634		0.0774		0.0655				0.056	0.0455	0.0521	0.0706
F49E	0.0533	0.0603	0.0595	0.0719	0.0621	0.0486	0.0587	0.0507	0.0623	0.0525	0.0564	0.0275	0.0519	0.0524			0.0513	0.0513	0.0604	0.0549
R50F	0.121	0.172	0.088		0.0785	0.07	0.136			0.046	0.141	0.0688	0.0806	0.0802		0.112	0.104			0.0362
R50V	0.14		0.0597	0.0792		0.113	0.114	0.0853		0.077	0.134	0.0608	0.0726	0.066			0.102	0.0696	0.0598	0.0599
N53E	0.141	0.109				0.0601		0.0883		0.0657	0.106	0.0405						0.0684	0.0484	0.0621
G54D	0.0732	0.0716	0.0562		0.054	0.0709	0.059	0.0591	0.0622	0.0565	0.0709	0.0608	0.0601	0.0456	0.0668	0.0716	0.0623	0.059	0.0539	0.06
T55H	0.0778	0.115	0.081			0.0744	0.078			0.0339	0.0994	0.0699	0.0938	0.074			0.0876	0.0581	0.0617	0.0734
Q59A	0.0799	0.116				0.0701		0.0866		0.0623	0.108	0.0654			0.0691	0.147	0.0747			
Q59T	0.108	0.104	0.0845	0.0607		0.0513				0.0567	0.104		0.0684	0.0698		0.0957		0.0595	0.0384	0.0617
S60A	0.0655	0.119	0.062		0.0667	0.0612	0.0776	0.0787	0.0879	0.0635	0.0952	0.05	0.0644	0.0601		0.0939	0.0758	0.052	0.0683	0.0692
